Reference: the supplement of paper PMC3334620
In all, about 33,000 sequences were measured (“E-score (-0.5 to 0.5)”: median about -0.054, highest 2% from about 0.39 on). Some of the results follow.

The sequences below were run against Ylr278c (UniProt Q05854) (assay: PBM E-score (8-mer binding enrichment) (E-score (-0.5 to 0.5)); higher = stronger / more preferred TF binding; most listed sequences are background and not binding sites). Details: protein concentration: 200 nM; construct: GST-DNA-binding domain.
Summary of the method: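 E-scores (a modified Wilcoxon-Mann-Whitney statistic) were assigned by the Universal PBM Analysis Suite to every ungapped eight-base word pooled with its reverse complement. The input came from universal all-10-mer Agilent arrays made double-stranded by primer extension and probed with GST-tagged yeast transcription factors at about 100-200 nM. Fluorescent anti-GST detected bound protein, and masliner normalised the scans.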

Sequence | PBM E-score
ACTAAGTG | -0.124
GAGGAGCA | -0.0254
ATCGTTTC | -0.0485
GCAAAGCC | -0.0386
AAAACTAG | -0.062
CCAGAACA | -0.0559
CATTATCC | 0.202
CACGGTAC | -0.0692
GCGTTCTA | 0.189
AAAGATGG | -0.0899
GAAGTATA | 0.11
GAGCATGA | -0.158
CCTGCACC | -0.0429
GACCATGA | 0.0081
CTAGTCGA | -0.237
ACCAGACA | -0.164
TGAATCCA | -0.128
CTGAACCA | -0.255
AAAAAGTC | 0.192
AACGACAT | -0.0462
CAACGAGC | -0.234
AATCGTGC | 0.107
GTCCAAAA | 0.136
CTTTCAGA | -0.0994
AAGGCTGC | -0.149

Sequence | PBM E-score
TGCAGACA | -0.196
ACTTACCT | -0.148
CGCCAATA | -0.045
CGACGGCG | 0.292
AATGCCTA | 0.0677
GAAGTAAA | 0.115
CTAGGCGC | -0.0895
AGTGAGAC | -0.0928
TCATGGGA | -0.246
CTATACCA | -0.225
CGAGTCAG | -0.151
AGTAGTAT | -0.121
GGACGTAC | 0.0307
AACTTGAT | -0.118
CACTCCAG | -0.114
ACAGCAGC | -0.191
CAGCTGAG | -0.175
ACTGACTC | -0.0355
GATCCATA | 0.0155
ACCCGGTA | 0.161
TGCTTGAA | -0.118
GAACGCCA | -0.00304
GAGGTTCC | 0.0696
CCTCTTGC | -0.1
CTGAGGTC | -0.297

Sequence | PBM E-score
CAAGTGAC | -0.0978
CTGGGTTA | -0.14
CATAGAGC | -0.211
AATGCACC | 0.121
CTGGAAGC | -0.226
AAAGCTAT | -0.0422
AATTAACC | 0.192
ATAAGAAT | -0.0758
ATACGACA | -0.229
ACATTACA | -0.104
ACCAGTAA | 0.00819
AAAGGCCA | -0.109
AGCAACGC | 0.0442
GATGACAA | 0.0504
AGGCGCTC | 0.0698
GGCCTCAC | -0.0329
AAACTGTG | -0.134
ATCTGCTG | -0.22
ATATGCGA | -0.00735
GCGAACAC | -0.00082
CCTTGCAG | -0.0823
TAACTCAA | -0.155
CTCCCCCA | -0.135
CCAGGGGC | -0.298
CTCACCTC | -0.0994

Sequence | PBM E-score
ACGGAGGA | 0.383
CCACATTA | -0.0697
CGCGAGTA | 0.106
AACGACGG | 0.176
CCTCGGGC | 0.136
CATTGTGA | -0.106
CGAAGCTA | -0.16
GCAACAAA | -0.0318
CCGACAGA | 0.306
CGCCTCTA | -0.119
CCCCACAA | -0.0102
ACATTACG | -0.102
ATGCTTGC | -0.155
CTGTACAG | -0.18
AGGATCCT | -0.232
CTTTGGGA | -0.157
CGGCGCCC | 0.246
GAGCTCAA | 0.108
ATCGGGGA | 0.33
AGCGGATA | 0.287
CGGCTCTC | 0.119
CTAACAAG | -0.324
ACGTTCCT | -0.0566
GGAATACA | 0.286
ACCAAGAG | -0.29

Sequence | PBM E-score
ACGACCAC | -0.211
AGAGGCGC | -0.133
GGCTAGAA | 0.0303
ACGCCCCT | -0.288
AGAGTGAA | -0.00028
CATTTCTC | 0.133
TGAGAAAA | -0.136
GCACTGCC | 0.0854
AACCCCCA | -0.224
AAACCGAT | 0.147
CAGCGGCC | 0.156
ATGTGGTG | -0.0662
CGTTATAG | -0.198
GCGGCTCA | 0.092
ACAACAGA | -0.167
CGTACTTC | 0.134
ATAGGCAG | -0.209
ACATATCG | -0.155
TACCCGAA | 0.0727
CGCACCTA | -0.0854
GAGGTTCA | 0.0375
ATCACCCC | -0.0133
AACTTATC | 0.0759
GCGCGTCC | 0.0412
AGCCCAGA | -0.0881

Sequence | PBM E-score
CCTAGCCG | 0.167
CTAAAAAC | -0.18
AAACTATG | -0.155
ACGTTAAA | -0.0842
CCCTGCGC | -0.00024
TCGTGTCA | -0.163
ACTGATTA | -0.165
CGTTAAAG | -0.0539
CGTGCTTC | -0.0238
CCACGTAG | -0.214
AAGGGGCG | 0.104
AAGACCAA | -0.1
GCGCTTCA | 0.0702
GAGACTGC | -0.103
ATTCGCCG | 0.358
CGCGTAAG | 0.124
CGACACCA | 0.00727
CAGCGCCA | -0.177
CAATTATC | 0.176
GTAGCGAA | 0.023
AGGGTTTA | -0.272
TCTTTAAA | -0.1
ATTGAGGG | -0.057
CCGCTCCC | 0.191
AGACTCAC | -0.248

Sequence | PBM E-score
ATAAGTAT | -0.0601
CTTCGTTA | -0.196
CAGGTTAG | -0.0908
ATATCTAG | -0.158
CGGCCGCC | 0.282
AATTGTGC | -0.111
CCTATCGA | -0.293
CTCCCACC | -0.125
CGTCAGGC | -0.0762
GAGGCCGA | 0.217
GCGTACGA | 0.0892
TAATAGGA | 0.0116
ACTTTATG | -0.132
CGTCTAGA | -0.217
GATGCCAA | -0.218
CGTGCTCA | -0.0992
CCACGACG | 0.0958
CGCACTCA | 0.0572
CGATAGAG | -0.101
ATTCCAAA | -0.142
TGACCACA | -0.213
GGCCGGCA | 0.394
AAACATAG | -0.153
ACTTCTAG | -0.27
AAGTGCGG | 0.297

Sequence | PBM E-score
CCATTGTC | 0.0343
ATTGGGGG | -0.203
AGCCGTAG | 0.0828
GCCAGTAA | -0.0512
ACATGTTC | -0.152
ACAATAGA | -0.133
ACGGTAGC | -0.13
CTCGCTTC | -0.0187
ACATATGG | -0.174
GGCGCAGA | 0.0101
CTACAACC | -0.129
AACGTCGA | -0.269
CAAACGTG | -0.0432
TAGCATAA | -0.111
CACAATAG | -0.0599
GGCCGGAA | 0.422
AAGACGGG | 0.195
GACCGTAA | 0.0267
AGACGGAC | 0.234
CAGCTCTC | -0.115
CAGCAGTA | -0.18
GCATTACC | 0.105
TAGGACTA | -0.0594
AAATCTTG | -0.0994
ATCCCCCA | -0.284

Sequence | PBM E-score
ACTGGAAG | -0.217
GCCTAAGC | -0.104
GAACGCCC | 0.191
AATTTGGC | -0.131
ACGAGCGC | 0.0689
AATTACGT | -0.192
ATGTGATA | -0.278
AAAATCCG | 0.451
ATACTATA | -0.0464
AAAATCGA | -0.177
GCGTCTGA | -0.169
CTGAGGCA | -0.222
CGTAAAAG | 0.0222
CGATGCGC | 0.115
AACGATAT | -0.121
CAACTCAA | 0.0251
TAGTCAAA | -0.144
CATTGAGC | -0.161
CGATCTTA | 0.0101
CGAAGAGC | 0.231
ACGGTCCT | -0.214
TTACGGAA | 0.283
CTTAAGAC | -0.0305
CCGCGTAA | 0.195
ATGCGCTA | -0.123

Sequence | PBM E-score
ATGATGGG | -0.208
AGTGCCGG | 0.386
AACCGTGT | -0.0935
ACGAGACG | -0.0236
GTTTGCCA | -0.145
AAACCCAT | 0.125
CACTAAGC | -0.163
AGCTTGAT | -0.281
ATAGCAAG | -0.0436
GCGTCAAC | 0.0422
GTTAGTCA | -0.0172
CACGCAAG | -0.244
ACTGCACC | -0.00176
CGGGGACA | 0.197
CGATCTCC | 0.294
TTTAGAAA | 0.056
CGGTTTAC | 0.103
AGTCCTGA | -0.204
GCTCTATA | -0.101
AATGGACT | -0.188
CTGACTGA | -0.285
AAAGTGGG | 0.032
AATTATAT | 0.0602
CGCGCGAG | 0.139
AGAACAAA | 0.0628

Sequence | PBM E-score
CAGCTAGC | -0.126
CACGAGAG | -0.139
AATGGGAT | 0.0269
GACCTGAA | 0.0825
CTAATCTC | -0.0805
TCAGCTAA | -0.307
CGCATGTC | 0.0679
GATACATA | -0.0276
CGGAACCG | 0.337
CGTAACCA | -0.0942
CCTTCCCC | 0.0434
ACACCAGA | -0.117
AAACGTTA | -0.181
CCAAGGGC | -0.205
GCCGACAA | 0.158
ATCTTTGA | -0.0894
CTTCAGCA | -0.261
AAGACTAG | -0.244
GTCTTGAA | 0.022
AAGCCCGT | 0.0339
TAAAAACA | -0.143
GCACAGCC | 0.0526
ACCCGATG | 0.25
CCAAACGC | -0.0836
TGGGTAAA | -0.133

Sequence | PBM E-score
AATGGGAG | -0.0663
ACGTTGTG | -0.141
CGGCGACA | 0.24
GAGAAATC | 0.152
ACGTCTCC | 0.11
GACTCCGA | 0.467
AATAAACA | 0.0315
AGGTGGGA | -0.08
GGCATATA | 0.0899
ACCGCTGA | 0.013
CTAGGGTA | -0.303
ACCTCGAC | -0.178
GTTCCAAA | -0.0952
AATAGCAG | -0.0178
AATCGGTG | 0.126
ATTCTATC | -0.108
AGGACACC | 0.0153
GATCATGC | -0.167
CGAGGAGA | -0.106
ACAGCGCG | -0.0038
ATCTGTGC | -0.167
AAGGCAAG | -0.08
AGGAAGTC | -0.156
AAGTCAGT | -0.0866
AGTAATGA | -0.186

Sequence | PBM E-score
CGCGCCTC | 0.17
GCCCGACC | 0.164
AGTAGATA | -0.0517
AGTTGCCC | 0.0354
AGCCCACC | 0.111
GGGAAAAA | 0.231
ACATTGAT | 0.0346
CAGAGGTC | -0.0838
GAGGGCGA | 0.0395
CTGATTCC | 0.0889
AAGCACGA | -0.155
CACGCCAC | -0.00118
CGTCACGC | 0.0345
AAAACAAA | 0.0676
GCATTTAC | -0.015
AATAGTTG | -0.0614
CCCGATCC | 0.202
ACACCAAA | -0.1
GCTGGAAC | -0.0427
GCACGTGC | 0.0173
CGGATTCC | 0.427
AGGTAACC | -0.173
CCGTCTGC | 0.131
AGCCAAAT | 0.132
AAATGTCG | -0.0387

Sequence | PBM E-score
TATTACAA | -0.0558
ACAACGAG | -0.147
ATGCGGTA | 0.131
AATCTCAT | -0.0498
CTAGGGGA | -0.159
CAGTCACA | -0.376
CACAATCC | 0.09
AAGGAGCA | -0.0618
CTCGACAG | -0.193
ACTCACGA | -0.203
ATTTTTAG | -0.0597
CTGGTGTC | -0.0758
TCGTCGCA | -0.0658
CGGAAAGA | 0.297
GAGCTGCC | 0.0529
CCAAACTA | -0.0757
AACGAACT | -0.202
GACACTGC | -0.117
CCATAACC | -0.21
